Laboratory results reported in the supplement of paper PMC8728848.
The list shows a part of the results.

Key:
Test in all cases: glycan array binding signal (z-score within array); higher = stronger binding
Conditions in all cases: glycan notation: IUPAC condensed, linker removed; mutation: R343V
[1] = biological target: Man(a1-3)[Man(a1-6)]Man(a1-6)[Man(a1-2)Man(a1-3)]Man(b1-4)GlcNAc(b1-4)GlcNAc
Method in brief: (§1)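 The binding signal is a Z-score computed within each array. Data were drawn from 3228 arrays in the Consortium for Functional Glycomics database, restricted to those with a known protein sequence. Scores were averaged over arrays of the same protein sequence at different concentrations or buffers, and over linkers, and negative values can be taken as non-binding.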

[2] = biological target: Man(a1-3)[Man(a1-6)]Man(a1-6)[Man(a1-3)]Man
Method in brief: as §1

[3] = biological target: Man(a1-3)[Man(a1-6)]Man(a1-6)[Man(a1-3)]Man(b1-4)GlcNAc(b1-4)GlcNAc
Method in brief: as §1

[4] = biological target: Man(a1-3)[Man(a1-6)]Man(b1-4)GlcNAc(b1-4)GlcNAc
Method in brief: as §1

[5] = biological target: Man(a1-6)Man
Method in brief: as §1

[6] = biological target: Man(b1-4)GlcNAc
Method in brief: as §1

[7] = biological target: Neu5Ac(a2-3)Gal
Method in brief: as §1

[8] = biological target: Neu5Ac(a2-3)Gal(b1-3)GalNAc
Method in brief: as §1

[9] = biological target: Neu5Ac(a2-3)Gal(b1-3)GalNAc(b1-3)Gal(a1-4)Gal(b1-4)Glc
Method in brief: as §1

[10] = biological target: Neu5Ac(a2-3)Gal(b1-3)GalNAc(b1-3)Gal(b1-4)GlcNAc
Method in brief: as §1

[11] = biological target: Neu5Ac(a2-3)Gal(b1-3)GalNAc(b1-4)[Neu5Ac(a2-3)]Gal(b1-4)Glc
Method in brief: as §1

[12] = biological target: Neu5Ac(a2-3)Gal(b1-3)GalNAc6S
Method in brief: as §1

[13] = biological target: Neu5Ac(a2-3)Gal(b1-3)GlcNAc
Method in brief: as §1

[14] = biological target: Neu5Ac(a2-3)Gal(b1-3)GlcNAc(b1-3)Gal(b1-3)GlcNAc
Method in brief: as §1

[15] = biological target: Neu5Ac(a2-3)Gal(b1-3)GlcNAc6S
Method in brief: as §1

[16] = biological target: Neu5Ac(a2-3)Gal(b1-3)[Fuc(a1-4)]GlcNAc
Method in brief: as §1

[17] = biological target: Neu5Ac(a2-3)Gal(b1-3)[Fuc(a1-4)]GlcNAc(b1-3)Gal(b1-4)[Fuc(a1-3)]GlcNAc
Method in brief: as §1

[18] = biological target: Neu5Ac(a2-3)Gal(b1-3)[Neu5Ac(a2-3)Gal(b1-4)]GlcNAc
Method in brief: as §1

[19] = biological target: Neu5Ac(a2-3)Gal(b1-3)[Neu5Ac(a2-6)]GalNAc
Method in brief: as §1

[20] = biological target: Neu5Ac(a2-3)Gal(b1-4)Glc
Method in brief: as §1

[21] = biological target: Neu5Ac(a2-3)Gal(b1-4)GlcNAc
Method in brief: as §1

[22] = biological target: Neu5Ac(a2-3)Gal(b1-4)GlcNAc(b1-2)Man(a1-3)[GlcNAc(b1-2)Man(b1-4)GlcNAc(b1-2)Man(a1-6)]Man(b1-4)GlcNAc(b1-4)GlcNAc
Method in brief: as §1

[23] = biological target: Neu5Ac(a2-3)Gal(b1-4)GlcNAc(b1-2)Man(a1-3)[Neu5Ac(a2-6)Gal(b1-4)GlcNAc(b1-2)Man(a1-6)]Man(b1-4)GlcNAc(b1-4)GlcNAc
Method in brief: as §1

[24] = biological target: Neu5Ac(a2-3)Gal(b1-4)GlcNAc(b1-3)Gal(b1-3)GlcNAc
Method in brief: as §1

[25] = biological target: Neu5Ac(a2-3)Gal(b1-4)GlcNAc(b1-3)Gal(b1-4)GlcNAc
Method in brief: as §1

[26] = biological target: Neu5Ac(a2-3)Gal(b1-4)GlcNAc(b1-3)Gal(b1-4)GlcNAc(b1-3)Gal(b1-4)GlcNAc
Method in brief: as §1

[27] = biological target: Neu5Ac(a2-3)Gal(b1-4)GlcNAc(b1-3)Gal(b1-4)[Fuc(a1-3)]GlcNAc
Method in brief: as §1

[28] = biological target: Neu5Ac(a2-3)Gal(b1-4)GlcNAc(b1-6)[Gal(b1-3)]GalNAc
Method in brief: as §1

[29] = biological target: Neu5Ac(a2-3)Gal(b1-4)GlcNAc(b1-6)[Neu5Ac(a2-3)Gal(b1-3)]GalNAc
Method in brief: as §1

[30] = biological target: Neu5Ac(a2-3)Gal(b1-4)GlcNAc6S
Method in brief: as §1

[31] = biological target: Neu5Ac(a2-3)Gal(b1-4)[Fuc(a1-3)]GlcNAc
Method in brief: as §1

[32] = biological target: Neu5Ac(a2-3)Gal(b1-4)[Fuc(a1-3)]GlcNAc(b1-3)Gal
Method in brief: as §1

[33] = biological target: Neu5Ac(a2-3)Gal(b1-4)[Fuc(a1-3)]GlcNAc(b1-3)Gal(b1-4)GlcNAc
Method in brief: as §1

[34] = biological target: Neu5Ac(a2-3)Gal(b1-4)[Fuc(a1-3)]GlcNAc(b1-3)Gal(b1-4)[Fuc(a1-3)]GlcNAc(b1-3)Gal(b1-4)[Fuc(a1-3)]GlcNAc
Method in brief: as §1

[35] = biological target: Neu5Ac(a2-3)Gal(b1-4)[Fuc(a1-3)]GlcNAc(b1-6)[Gal(b1-3)]GalNAc
Method in brief: as §1

[36] = biological target: Neu5Ac(a2-3)Gal(b1-4)[Fuc(a1-3)]GlcNAc6S
Method in brief: as §1

[37] = biological target: Neu5Ac(a2-3)Gal6S(b1-4)GlcNAc
Method in brief: as §1

B1: Surfactant Protein D (Human); Neck + Carbohydrate Recognition Domain (NCRD) (Homo sapiens) (protein)
chain: MLLFLLSALVLLTQPLGYLEAEMKTYSHRTMPSACTLVMCSSVESGLPGRDRDGREGPRGEKGDPGLPGAAGQAGMPGQAGPVGPKGDNGSVGEPGPKGDTGPSGPPGPPGVPGPAGREGALGKQGNIGPQGKPGPKGEAGPKGEVGAPGMQGSAGARGLAGPKGERGVPGERGVPGNTGAAGSAGAMGPQGSPGARGPPGLKGDKGIPGDKGAKGESGLPDVASLRQQVEALQGQVQHLQAAFSQYKKVELFPNGQSVGEKIFKTAQFVKPFTEAQLLCTQAGGQLASPRSAAENAALQQLVVAKNEAAFLSMTDSKTEGKFTYPTGESLVYSNWAPGEPNDDGGSEDCVEIFTNGKWNDVACGEKRLVVCEF
[1]
  glycan array binding signal (z-score): 3.01
[2]
  glycan array binding signal (z-score): 1.9
[3]
  glycan array binding signal (z-score): 3.27
[4]
  glycan array binding signal (z-score): 2.93
[5]
  glycan array binding signal (z-score): 0.192
[6]
  glycan array binding signal (z-score): 2.12
[7]
  glycan array binding signal (z-score): -0.401
[8]
  glycan array binding signal (z-score): -0.428
[9]
  glycan array binding signal (z-score): -0.525
[10]
  glycan array binding signal (z-score): -0.482
[11]
  glycan array binding signal (z-score): -0.39
[12]
  glycan array binding signal (z-score): -0.251
[13]
  glycan array binding signal (z-score): -0.447
[14]
  glycan array binding signal (z-score): -0.432
[15]
  glycan array binding signal (z-score): -0.362
[16]
  glycan array binding signal (z-score): -0.48
[17]
  glycan array binding signal (z-score): -0.102
[18]
  glycan array binding signal (z-score): -0.429
[19]
  glycan array binding signal (z-score): -0.436
[20]
  glycan array binding signal (z-score): -0.497
[21]
  glycan array binding signal (z-score): -0.407
[22]
  glycan array binding signal (z-score): -0.486
[23]
  glycan array binding signal (z-score): -0.494
[24]
  glycan array binding signal (z-score): -0.489
[25]
  glycan array binding signal (z-score): -0.506
[26]
  glycan array binding signal (z-score): -0.316
[27]
  glycan array binding signal (z-score): -0.447
[28]
  glycan array binding signal (z-score): -0.381
[29]
  glycan array binding signal (z-score): -0.53
[30]
  glycan array binding signal (z-score): -0.457
[31]
  glycan array binding signal (z-score): -0.401
[32]
  glycan array binding signal (z-score): -0.453
[33]
  glycan array binding signal (z-score): -0.342
[34]
  glycan array binding signal (z-score): -0.287
[35]
  glycan array binding signal (z-score): -0.365
[36]
  glycan array binding signal (z-score): -0.444
[37]
  glycan array binding signal (z-score): -0.311
